Results reported in publication PMC4336329 (PLoS ONE, 2015).
In all, about 310,000 compounds went through this assay and about 14,000 (4.5%) showed an effect of 50% or more. The effect is printed as a negative number. The list shows a part of the results.

target: human ether-à-go-go-related gene (hERG) potassium channel (human, UniProt Q12809); experiment: primary screen, population patch clamp on CHO cells stably expressing hERG
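Also: peak tail current of the secondary pulse compared with the same well before compound.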

Sequence of human ether-à-go-go-related gene (hERG) potassium channel (Q12809 whole entry, looked up): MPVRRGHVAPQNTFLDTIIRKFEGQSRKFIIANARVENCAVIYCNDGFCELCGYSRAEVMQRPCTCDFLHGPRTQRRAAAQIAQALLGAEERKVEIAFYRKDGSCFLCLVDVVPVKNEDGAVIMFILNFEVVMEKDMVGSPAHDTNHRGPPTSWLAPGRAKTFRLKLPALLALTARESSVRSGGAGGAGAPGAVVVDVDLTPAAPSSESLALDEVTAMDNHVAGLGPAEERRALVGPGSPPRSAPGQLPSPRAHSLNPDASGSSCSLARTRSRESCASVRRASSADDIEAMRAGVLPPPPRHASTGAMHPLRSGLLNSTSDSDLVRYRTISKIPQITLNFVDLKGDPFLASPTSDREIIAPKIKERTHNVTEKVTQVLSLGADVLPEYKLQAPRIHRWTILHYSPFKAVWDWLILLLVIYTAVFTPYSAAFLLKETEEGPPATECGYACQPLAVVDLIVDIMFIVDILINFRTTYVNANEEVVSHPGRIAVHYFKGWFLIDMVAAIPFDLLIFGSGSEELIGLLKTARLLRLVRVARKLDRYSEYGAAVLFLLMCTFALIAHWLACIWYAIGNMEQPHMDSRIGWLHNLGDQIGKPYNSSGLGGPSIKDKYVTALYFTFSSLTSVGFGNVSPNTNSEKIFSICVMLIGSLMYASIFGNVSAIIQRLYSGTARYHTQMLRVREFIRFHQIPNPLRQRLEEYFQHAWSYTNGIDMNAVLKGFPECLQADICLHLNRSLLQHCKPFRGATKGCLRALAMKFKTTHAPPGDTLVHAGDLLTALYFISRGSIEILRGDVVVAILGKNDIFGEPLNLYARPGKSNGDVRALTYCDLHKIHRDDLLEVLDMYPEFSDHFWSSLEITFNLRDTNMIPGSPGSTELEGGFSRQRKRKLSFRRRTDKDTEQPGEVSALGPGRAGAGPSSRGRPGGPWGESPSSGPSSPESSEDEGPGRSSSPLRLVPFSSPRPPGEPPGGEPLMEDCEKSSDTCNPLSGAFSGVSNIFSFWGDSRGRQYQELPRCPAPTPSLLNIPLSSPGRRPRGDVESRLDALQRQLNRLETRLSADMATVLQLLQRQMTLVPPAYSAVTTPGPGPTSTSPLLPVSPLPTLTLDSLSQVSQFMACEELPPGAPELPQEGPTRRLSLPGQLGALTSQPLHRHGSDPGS

SMILES | hERG current change (%, negative = inhibition) at 10uM
O=C(c1ccccc1)N1CCN(C(=O)c2cc3nc(-c4ccccc4)cc(C(F)(F)F)n3n2)CC1 | -51.1%
Fc1ccc(NC(=S)N2CCc3[nH]c4ccccc4c3C2)cc1 | 6.75%
Cc1c(Cl)c([N+](=O)[O-])nn1Cc1ccc(C(=O)N/N=C\c2cccc(Br)c2)o1 | -38.7%
CCOC(=O)Nc1sc(NS(=O)(=O)c2ccc(C)cc2)nc1C | -3.5%
CCOC(=O)Nc1sc(C)c(C)c1C(=O)OCC | 7.99%
Cc1ccc2c(c1)C(=O)C(=O)N2CC(=O)Nc1ccccc1NC(=O)c1ccccn1 | 11.4%
CCOC(=O)COc1ccc(S(=O)(=O)Nc2cccc(SC)c2)cc1 | -46.5%
COc1ccc(C(=O)Nc2nccs2)cc1OC | -5.8%
CCOC(=O)c1cnc(SC)nc1Sc1ccc(Cl)cc1Cl | 6.1%
Cc1ccc(C(=O)C2CN3CCC2CC3)cc1.Cl (stereo not shown) | -37.4%
CCS(=O)(=O)N1CCN(c2ccccc2F)CC1 | 17.6%
CCn1cc(C(=O)NCc2ccc3c(c2)OCO3)c(=O)c2cc(F)c(N3CCN(C(=O)c4ccco4)CC3)cc21 | -1.93%
COc1cc(C(CCN2CCCC2)c2c(OC)cc(OC)c3c(-c4ccccc4)cc(=O)oc23)cc(OC)c1OC (stereo not shown) | -70.8%
Cc1ccc(S(=O)(=O)NCCC(=O)OCC(=O)NC(=O)c2cccn2C)cc1 | -12.5%
COCCn1nnnc1C1(N(Cc2cc3cc(C)ccc3[nH]c2=O)CC2CCCO2)CCN(C)CC1 (stereo not shown) | -9.3%
Cn1cc(CN2CCC(C(O)c3cccs3)CC2)c(-c2cccc(Cl)c2)n1 (stereo not shown) | -57%
COc1ccccc1NC(=O)CC(NCc1ccccc1)C(=O)O (stereo not shown) | 7.4%
Cc1ccc(-c2ccc(=O)n(CCC(=O)N3CCC4(CC3)OCCO4)n2)cc1 | -64.5%
S=C(NNc1ccc2ccccc2c1)NC1CCCCC1 | 18%
COc1ccc2[nH]c(C(=O)NCCCn3ccnc3)cc2c1 | -1.32%
Cc1cccc(CSCc2ccc(C(=O)NC(C)C)o2)c1 | -8.27%
CN(C)S(=O)(=O)c1ccc(NC(=O)CN2CCc3ccccc32)cc1 | 11.8%

SMILES | hERG current change (%, negative = inhibition) at 10uM
CCOc1ccc(NC(=O)C2CCCCN2S(=O)(=O)c2ccccc2)cc1 (stereo not shown) | -16.1%
CCN(CC)c1ccc2nc3c4ccccc4c(=O)cc-3oc2c1 | 23%
CCOc1ccc(C(=O)NCC(=O)NCC(c2ccc(OC)cc2)N2CCOCC2)cc1OCC (stereo not shown) | 6.93%
Cc1cccc(N2CC(C)Cn3c2nc2c3c(=O)[nH]c(=O)n2C)c1 (stereo not shown) | -0.757%
CN1C(=O)N(C)C(=O)C2(Cc3ccccc3N3CCCC32)C1=O (stereo not shown) | 13.7%
Cc1cccc(Cc2ccc(Cl)nn2)c1 | 9.92%
COC(=O)c1ccccc1N(C)S(=O)(=O)c1cc2c(cc1C)OCC(=O)N2 | -0.885%
COc1ccccc1C(=O)Nc1sc2c(c1C#N)CCC2 | 26.8%
CCN1/C(=C/C(C)=O)Sc2ccc(OC)cc21 | -12.7%
CCOC(=O)C1(Cc2cccc(OC)c2)CCN(Cc2csc(C(C)=O)c2)CC1 | -41.1%
CCCCSCCCNC(=O)CS(=O)Cc1nc(-c2cccc(C)c2)oc1C (stereo not shown) | -33.7%
O=C(NCC1CCCO1)c1ccc2c(=O)n(CCc3ccccc3)c(=O)[nH]c2c1 (stereo not shown) | 7.98%
Cc1c(NC(=O)c2cc3nc(-c4ccc(Cl)cc4)cc(C(F)(F)F)n3n2)c(=O)n(-c2ccccc2)n1C | -55.3%
CCCCn1c(N)c(N(CC(C)C)C(=O)CSc2nnc(-c3ccc(Cl)cc3)o2)c(=O)[nH]c1=O | -17.3%
O=C(COC(=O)/C=C/c1ccc(OC(F)F)cc1)NC1CCCCC1 | 10.5%
Cc1csc(SCC(=O)Nc2cccc(C)c2C)n1 | -13.9%
COc1ccc(NS(=O)(=O)c2ccc(C)c(C(=O)NCCCN3CCCC3=O)c2)cc1 | 2.76%
C/C(=N/Oc1nc(C)cc(C)n1)c1ccc(Br)cc1 | -26.7%
COc1ccc(C(=O)NC(C)CCc2ccccc2)c(O)c1 (stereo not shown) | -55.5%
CCOC(=O)c1ccc(NC(=S)Nc2ccc(C)cc2)cc1 | 17.4%
Cc1cccc(NC(=O)CSc2nc3nc(C)cc(C)c3c(=O)[nH]2)c1 | 4.65%
Cc1ccc(C(=O)NCCSc2ccc(Cl)cc2)cc1S(=O)(=O)Nc1ccccc1 | 12.9%

SMILES | hERG current change (%, negative = inhibition) at 10uM
CCOc1ccccc1OCCCNCc1ccco1.O=C(O)C(=O)O | -0.982%
Cc1ccc(CN2CCSc3ccc(C(=O)NC4CCN(Cc5ccccc5)CC4)cc32)cc1 | 8.21%
Cn1cnnc1SCC(=O)c1ccc2c(c1)CCCC2 | -5.75%
CCOC(=O)CS(=O)(=O)c1ccccc1 | -3.19%
CC(=O)OCC1OC(OC(C)=O)C(NC(=O)Cc2ccccc2)C(OC(C)=O)C1OC(C)=O (stereo not shown) | -5.33%
NS(=O)(=O)c1cccc(NC(=O)c2cc(=O)c3ccccc3o2)c1 | 6.18%
CCCCn1c(N)nc2ccccc21.Cl | -8.47%
CCOc1cc(/C=N/NC(=O)C(=O)NC2CC2)cc(Br)c1O | 6.42%
O=C(CN1C(=O)c2ccccc2S1(=O)=O)N1CCN(c2ccccc2F)CC1 | 10.4%
O=C(C1CCC(=O)N1C1CCCCC1)N1CCC2(CC1)OCCO2 (stereo not shown) | 7.41%
CC(=O)c1ccc(S(=O)(=O)NC2CC(=O)N(c3ccc(Cl)cc3)C2)cc1 (stereo not shown) | -34.8%
CC1(C)CC(=O)/C(=C(\O)c2ccccc2)C(=NCCO)C1 | 8.54%
CC(=O)c1ccc(NC(=O)C2CCCN2S(=O)(=O)c2ccc(C)cc2)cc1 (stereo not shown) | -13.5%
O=C(/C=C/c1cccs1)NC(=S)NNC(=O)c1ccccc1O | 27%
O=C(Cc1ccc(Cl)cc1)NCC(=O)N1CCCCC1 | 0.346%
Cc1cc(C)c(S(=O)(=O)c2ccccc2)c(OC(=O)c2c(F)cccc2F)n1 | -18.9%
CCOC(=O)N1CCN(C(=O)c2cc3cc(Br)ccc3oc2=O)CC1 | -17.7%
Cc1ccc(C(=O)c2c3ccc([N+](=O)[O-])cc3[n+]([O-])n2CCC(N)=O)cc1 | -32.6%
O=C(Cn1c(=O)[nH]c2sc3c(c2c1=O)CCCC3)NCC1CCCO1 (stereo not shown) | 20%
Cc1nc(-c2ccc(Cl)cc2)sc1C1(C)CC(c2ccccc2Br)=NO1 (stereo not shown) | 13.8%
Cc1ccsc1C(=O)N(c1nc2ccccc2s1)c1c(C)cccc1C | 30.3%
Cc1nc(-c2cccc(Br)c2)ccc1C(=O)O | 25.3%

SMILES | hERG current change (%, negative = inhibition) at 10uM
Cn1c(CCC(=O)OCC(=O)NCc2ccc3c(c2)OCO3)nc(=O)c2ccccc21 | 37.8%
CCC(C)(C(=O)NC1CCCC1)N(Cc1ccco1)C(=O)c1ccccn1 (stereo not shown) | 1.02%
COc1ccc(NC(=O)CN(C)C(=O)CCSc2ccc(C)cc2)cc1 | -31.2%
COc1ccc(OC)c(/C=C/C(=O)N2CCCc3ccccc32)c1 | -12.6%
O=C(Nc1c(Cl)cc(Cl)cc1-c1nc2ccccc2s1)c1ccc(Br)o1 | 1.46%
Cc1ccccc1-n1c(=O)c2c(n3cnnc13)-c1ccccc1CC21CCCCC1 | -9.87%
COc1ccc(C(CNC(=O)c2cccc(S(=O)(=O)Nc3ccccc3OC)c2)N2CCCC2)cc1 (stereo not shown) | -56.6%
CCc1ccc(C2=NN(CCC(=O)NC(C)c3ccc4c(c3)OCCO4)C(=O)CC2)cc1 (stereo not shown) | -15.4%
O=C(COC(=O)c1ccc(F)cc1F)Nc1cccnc1Cl | -56.3%
CC(C)NC(=S)n1cc(C(=O)c2cc(Cl)cc(Cl)c2O)cn1 | 12.3%
COC(=O)C1CCCCN1C(=O)c1cc(COc2cccc3cccnc23)on1 (stereo not shown) | 5.16%
O=C(NCC(=O)N(c1ccc(F)cc1)C(C(=O)NCC1CCCO1)c1ccccc1)c1ccco1 (stereo not shown) | -3.58%
O=C(COC(=O)c1cc2ccccc2oc1=O)Nc1ccc(F)cc1F | 1.29%
CCC1C2CN(C(C)=O)CC=C2C(C#N)=C(N)C1(C#N)C#N (stereo not shown) | 5.66%
O=C(COC(=O)/C=C/c1cnc2ccccc2n1)NCC(F)(F)F | 6.96%
CC(C)c1ccc(O)c(N)c1 | -3.7%
COc1ccc(OC)c(S(=O)(=O)n2ccc(C)n2)c1 | 2.45%
COc1ccc(OCCSc2nc3ccccc3c(=O)[nH]2)cc1 | 3.43%
O=S(c1ccsc1)c1ccsc1 | 10.5%
CCN(CC)CCn1c(=N)n(CC(O)c2ccco2)c2ccccc21.Cl (stereo not shown) | -73.2%
COc1ccc(N(CC(=O)Nc2ccc(F)c(F)c2)S(=O)(=O)c2c(C)[nH]c(=O)[nH]c2=O)cc1 | 19.9%
O=C(CSc1ccc(-c2ccco2)nn1)Nc1cccc(F)c1 | -55.2%
